For some assays here: Shown are results outside the selection of hits, which stands elsewhere. Inconclusive results are not listed. The list shows a part of the results, in another mix than the full data. Activity calls are given as the source filed them. How the source made its calls: active means hit-call score of the fitted dose curve at least 0.9, where 1 is the maximum; inconclusive means response in the unintended direction; inactive means score below 0.9.

The results in this text go back to PubChem BioAssay (EPA / NIEHS).

The first experiment concerns the target Cellular tumor antigen p53 (Homo sapiens) (UniProt P04637). Put plainly: TOX21_p53_BLA_p5_ratio: Tox21 HCT-116 p53 Agonism Beta-lactamase Assay, Ratio, Phase 5 (AID 2283599). Summed up:
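Beta-lactamase reporter ratio (blue 460 nm over green 530 nm, 405 nm excitation) after 2 h CCF4-AM loading, in HCT-116 cells exposed 16 h at 37 C to compounds pinned at 217-fold dilution. Increases relative to DMSO baseline scored.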
Take `CCOC(=O)c1ccc(OCCN2C[C@H](O)[C@@H](O)[C@H](O)[C@H]2CO)cc1`: the outcome was inactive. Regarding `O=C(O)CCCCCCCC(=O)O`, the result was inactive. As to `C[N+]1(C)CCC(=C(c2ccccc2)c2ccccc2)CC1`, the outcome was inactive.

Turning to `COC(C)CCO` (stereo not drawn), the outcome was inactive.

With `COC(=O)CCC(=O)CN`, the result was inactive.

For `COC(=O)[C@H]1[C@H]2C[C@@H]3c4[nH]c5ccccc5c4CCN3C[C@H]2C[C@@H](OC(=O)c2cc(OC)c(OC)c(OC)c2)[C@@H]1OC`, the outcome was inactive. Regarding `CCOc1cc(N)c(Cl)cc1C(=O)NCC1CN(Cc2ccc(F)cc2)CCO1` (stereo not drawn), the outcome was inactive. As for `CCc1ccc(O)c(C(C)(C)C)c1`, the AC50 was active: 86.2 µM. As for `Nc1cc(S(=O)(=O)O)ccc1S(=O)(=O)O`, the outcome was inactive.

For a further experiment the target is unchanged. The experiment is described as follows: TOX21_p53_BLA_p4_ratio: Tox21 HCT-116 p53 Agonism Beta-lactamase Assay, Ratio, Phase 4 (AID 2283601). An outline of the steps: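 Signal is the blue/green (460nm/530nm) ratio of cleaved versus uncleaved CCF4-AM substrate, read after 2 h substrate loading. Cells were HCT116 carrying the p53-responsive beta-lactamase reporter, dosed 16 h at 37C, 5% CO2; CellTiter-Glo measured in parallel.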
For `CCOC(=O)n1ccn(C)c1=S`, the result was inactive. Same read-out and setting: to `CCCCC/C=C/C=C/C=O` belongs “inactive”; to `CCCCOCCO`, “inactive”; to `CC1(C)[C@@H](OC(=O)CCC(=O)O)CC[C@]2(C)[C@H]3C(=O)C=C4[C@@H]5C[C@@](C)(C(=O)O)CC[C@]5(C)CC[C@@]4(C)[C@]3(C)CC[C@@H]12`, “inactive”. In the case of `Nc1ccc(O)c(C(=O)O)c1`, the result was inactive. Still for that read-out and setting: to `CCOCCOCC` belongs “inactive”. With `CCOC(=O)CC(CC(=O)OCC)(OC(C)=O)C(=O)OCC`, the result was inactive. The same measure, in the same setting: to `CC[Si](OC(C)=O)(OC(C)=O)OC(C)=O` belongs “inactive”; to `CC/C=C\CCOC(C)OCC` (stereo not drawn), “inactive”. Same read-out and setting: to `CC(=O)OC(C)=O` belongs “inactive”; to `CCn1cc(C(=O)O)c(=O)c2cnc(N3CCCC3)nc21`, “inactive”.

For `COC(C)CCO` (stereo not drawn), the outcome was inactive. `CCOC(=O)Nc1ccc(NCc2ccc(F)cc2)nc1N`: the outcome was inactive. Regarding `CCCCCSCCCCC`, the result was inactive.
